{
  "source": "paper PMC7819943",
  "about": "“Rice protein-binding microarrays: a tool to detect cis-acting elements near promoter regions in rice”",
  "note": "The other results are listed elsewhere or left out.",
  "data": [
    {"target": "T1, OsWOX13 (Oryza sativa, UniProt Q5QMM3 1-267)", "T1 sequence": "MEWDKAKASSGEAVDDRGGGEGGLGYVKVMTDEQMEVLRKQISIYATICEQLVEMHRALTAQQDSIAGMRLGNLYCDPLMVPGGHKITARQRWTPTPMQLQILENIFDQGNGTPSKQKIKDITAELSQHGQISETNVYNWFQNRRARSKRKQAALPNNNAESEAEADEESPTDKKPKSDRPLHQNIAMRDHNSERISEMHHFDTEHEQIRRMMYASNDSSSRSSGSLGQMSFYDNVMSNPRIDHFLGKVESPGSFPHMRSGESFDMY", "assay": "protein-binding microarray (RPBM); PBS, 2% BSA, 51.3 ng/ul salmon testes DNA, 50 uM zinc acetate, 200 nM TF, 25 C, 1 h; high values mean tight binding", "conditions": "protein: recombinant; tags: N-terminal polyhistidine and DsRed monomer fusion (pET32a); label: CyDye5-dUTP incorporated in the synthesized complementary strand; 3' TTTTT single-stranded linker to array surface; dsDNA, one strand shown", "outline": "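Transcription factors were made in E. coli BL21-CodonPlus as N-terminal fusions to a polyhistidine tag and DsRed, then purified on Ni–NTA. After primer extension with Cy5-dUTP and blocking with 2% BSA, a custom Agilent array was exposed for 1 h at 25 °C to 200 nM protein in PBS, 2% BSA, salmon testes DNA and 50 µM zinc acetate. Washed arrays were scanned on an Axon 4000B, and the binding signal is per-feature fluorescence intensity in arbitrary units.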", "values": [
      {"sequence": "CTTATTCCTTGATTTGTTCACCCCAAGGTCCAAATCACATCGGAGTCACCTAGTGCAG", "binding signal": "7140 fluorescence intensity (a.u.)"},
      {"sequence": "TTCAAATTTTAAAATTTTATTTCTTAATACGCTCGTATGGCGGAGTCACCTAGTGCAG", "binding signal": "21800 fluorescence intensity (a.u.)"},
      {"sequence": "ATCGTGATTTGAAGTCTCCAAATCTTCTAGTTGACAAGAACGGAGTCACCTAGTGCAG", "binding signal": "26900 fluorescence intensity (a.u.)"},
      {"sequence": "CAGGCAGCTGCACCATAAGCTCAGTTGCAGCTTTTATATACGGAGTCACCTAGTGCAG", "binding signal": "6390 fluorescence intensity (a.u.)"},
      {"sequence": "CTGTAATTTTGTGAAAATTTACTTTTATTCTGGGGTGGAGCGGAGTCACCTAGTGCAG", "binding signal": "18700 fluorescence intensity (a.u.)"},
      {"sequence": "TTCCTCTGTTAATAACCAATTAATTCGTGATCAGCTCATCCGGAGTCACCTAGTGCAG", "binding signal": "29200 fluorescence intensity (a.u.)"},
      {"sequence": "ATTTTAGTGATTAATTTAATTGGAAAAGTAAATTAAATTCCGGAGTCACCTAGTGCAG", "binding signal": "20500 fluorescence intensity (a.u.)"},
      {"sequence": "GCTAAACTGTTTCAAGATCCTATACATGATCCATCCCACACGGAGTCACCTAGTGCAG", "binding signal": "3460 fluorescence intensity (a.u.)"},
      {"sequence": "TCCACTAATATTAACCAATAGACAGATATACTATCACAGTCGGAGTCACCTAGTGCAG", "binding signal": "10800 fluorescence intensity (a.u.)"},
      {"sequence": "GTCGTAATTGGTTAAGATGAAAGAGTAAGTAAAGAAATTACGGAGTCACCTAGTGCAG", "binding signal": "10800 fluorescence intensity (a.u.)"},
      {"sequence": "GTTTCTAATTAACTAAATTAATTAATTAGCATGATTGGTCCGGAGTCACCTAGTGCAG", "binding signal": "64700 fluorescence intensity (a.u.)"},
      {"sequence": "CACTCAATCCCTCCTGGATTGATTCCCCTTGGGGATTAAACGGAGTCACCTAGTGCAG", "binding signal": "4500 fluorescence intensity (a.u.)"},
      {"sequence": "AATGCTTAATTTAATTTGTGGCAAGAACCTGTGGTAGTGACGGAGTCACCTAGTGCAG", "binding signal": "17400 fluorescence intensity (a.u.)"},
      {"sequence": "AGATAATTGCATAAACAATCGTTTAGTTAGACTATAGAAACGGAGTCACCTAGTGCAG", "binding signal": "14700 fluorescence intensity (a.u.)"},
      {"sequence": "AGCATTTCTATGATTTGTTACACTTTTACGAGTCTTATTTCGGAGTCACCTAGTGCAG", "binding signal": "3500 fluorescence intensity (a.u.)"},
      {"sequence": "AAATGATTGACTGCCTCAAGAGAATTTTACTCCTGTAGTGCGGAGTCACCTAGTGCAG", "binding signal": "48800 fluorescence intensity (a.u.)"},
      {"sequence": "TTAATGTTAATGAATCTAGATTTGTGAAACGGAGGGAGTACGGAGTCACCTAGTGCAG", "binding signal": "14400 fluorescence intensity (a.u.)"},
      {"sequence": "ATATTTAATACTTCTAATTAGTGTCTAAGACCCTGTTTAGCGGAGTCACCTAGTGCAG", "binding signal": "4720 fluorescence intensity (a.u.)"},
      {"sequence": "GGAGGAGGTGGCGGCGGAGGGGTTGGTGGTGGAGGTGGTCCGGAGTCACCTAGTGCAG", "binding signal": "7270 fluorescence intensity (a.u.)"},
      {"sequence": "GGTAATTAACCGAGTGTGTGTACTTGTGCAAGATCCAGGCCGGAGTCACCTAGTGCAG", "binding signal": "29700 fluorescence intensity (a.u.)"},
      {"sequence": "ACTACTGATTTGAATCCTCGTGAGAGATGATGTGATTACACGGAGTCACCTAGTGCAG", "binding signal": "19800 fluorescence intensity (a.u.)"},
      {"sequence": "AAATTAAATTGCGAGCTAACAAAGGCCACTTCGTTAGCATCGGAGTCACCTAGTGCAG", "binding signal": "15200 fluorescence intensity (a.u.)"},
      {"sequence": "AATTTAAATAATTTAACTTGCTAAGGGATATGACATTTGACGGAGTCACCTAGTGCAG", "binding signal": "4480 fluorescence intensity (a.u.)"},
      {"sequence": "CAAATTACAAATTACAGAAGAACGCCTCGCTACTAGCTAGCGGAGTCACCTAGTGCAG", "binding signal": "21000 fluorescence intensity (a.u.)"},
      {"sequence": "CCCATAATTCCATTTGACTGGTTCCTCTCAAGCATGTTGCCGGAGTCACCTAGTGCAG", "binding signal": "20600 fluorescence intensity (a.u.)"},
      {"sequence": "TGTACGAACATTATAATTAACTTATTACATACTCCCTCCGCGGAGTCACCTAGTGCAG", "binding signal": "4530 fluorescence intensity (a.u.)"},
      {"sequence": "TAATTAAATTATAATCCACTAACTACTCATTCCACAACTGCGGAGTCACCTAGTGCAG", "binding signal": "19500 fluorescence intensity (a.u.)"},
      {"sequence": "TAAATTGGTAACCTGTGAATGGCCAAACAACGCATACCCACGGAGTCACCTAGTGCAG", "binding signal": "12900 fluorescence intensity (a.u.)"},
      {"sequence": "TATGTTACAATTAATTGATTTACTAGAAGTTTCAATAAAACGGAGTCACCTAGTGCAG", "binding signal": "26600 fluorescence intensity (a.u.)"},
      {"sequence": "CATGTTAATGTGATAGAAAAGGACTGAAGCTTGGATCCGACGGAGTCACCTAGTGCAG", "binding signal": "7900 fluorescence intensity (a.u.)"},
      {"sequence": "CGAGACGAATCTTCTGAGCCTAATTAGTCCATGATTAGGCCGGAGTCACCTAGTGCAG", "binding signal": "5700 fluorescence intensity (a.u.)"},
      {"sequence": "GTTGATAGTTGTCATATGCACTCCTTGTTAAGCTCGCTATCGGAGTCACCTAGTGCAG", "binding signal": "3190 fluorescence intensity (a.u.)"},
      {"sequence": "CCGCCGTTAGATTGAAGCAGAGCTACAGGCAGGAGGGGCTCGGAGTCACCTAGTGCAG", "binding signal": "10600 fluorescence intensity (a.u.)"},
      {"sequence": "GTCAATTTAGATTGCCGCGCTTACAATTAGTTCTCAGGAACGGAGTCACCTAGTGCAG", "binding signal": "15100 fluorescence intensity (a.u.)"},
      {"sequence": "GAGTTTAATTAATTAATTTCTTAAAATTGATGTCATCACACGGAGTCACCTAGTGCAG", "binding signal": "54800 fluorescence intensity (a.u.)"},
      {"sequence": "GATGACATATATCAAACTTTGCAAAATTATAATGGTATGGCGGAGTCACCTAGTGCAG", "binding signal": "5960 fluorescence intensity (a.u.)"},
      {"sequence": "ACCTAATTAATCCGTCATTAACAAATGTTTACCGTAACACCGGAGTCACCTAGTGCAG", "binding signal": "38100 fluorescence intensity (a.u.)"},
      {"sequence": "GGTTAAGTAATCAACCAGTGATAGTTGGTGTGTTTATGTACGGAGTCACCTAGTGCAG", "binding signal": "3610 fluorescence intensity (a.u.)"},
      {"sequence": "TTATACAGATTGCGTGTAAATTGCGAGACAAATCTTTTAACGGAGTCACCTAGTGCAG", "binding signal": "3840 fluorescence intensity (a.u.)"},
      {"sequence": "CGTCCGTCATTGATTATGCCAGATCATAGCTGTACGTCGTCGGAGTCACCTAGTGCAG", "binding signal": "21300 fluorescence intensity (a.u.)"},
      {"sequence": "CAGATAACTATTGTATGAATTGGCCATTAAAATGACTACACGGAGTCACCTAGTGCAG", "binding signal": "3610 fluorescence intensity (a.u.)"},
      {"sequence": "GTTTAATTAACGCCAAACTTTCCCCAAATTCTAAACTTTTCGGAGTCACCTAGTGCAG", "binding signal": "27800 fluorescence intensity (a.u.)"},
      {"sequence": "CCGGCAAATCCTTAATTAATTAATTATGCATCATCTATTTCGGAGTCACCTAGTGCAG", "binding signal": "32400 fluorescence intensity (a.u.)"},
      {"sequence": "CCATTAATTGGAACCAAAATTGTAGGTGGACAGGTATCCACGGAGTCACCTAGTGCAG", "binding signal": "45000 fluorescence intensity (a.u.)"},
      {"sequence": "CCAAATATAAATTTATAGAAATGTAATAAGTTTATGAGATCGGAGTCACCTAGTGCAG", "binding signal": "11600 fluorescence intensity (a.u.)"},
      {"sequence": "GTGCTCTTGATTGGCACATGAGCCTTGGCGGCGGTGACCTCGGAGTCACCTAGTGCAG", "binding signal": "35600 fluorescence intensity (a.u.)"},
      {"sequence": "GCTTCTTTGATTGTTGAGCGGGTTGTGTTCTTCATCACTTCGGAGTCACCTAGTGCAG", "binding signal": "23700 fluorescence intensity (a.u.)"},
      {"sequence": "ATGTAATTATCATTTATTTTATTATGACTTGATTCATCATCGGAGTCACCTAGTGCAG", "binding signal": "49600 fluorescence intensity (a.u.)"},
      {"sequence": "ATGTGACCATAATTGGCTTTATGTATTTAGATGGTATGGACGGAGTCACCTAGTGCAG", "binding signal": "27600 fluorescence intensity (a.u.)"},
      {"sequence": "TTAATGATTGAATTGAACCTGTGAATGGAGAAGAACAACCCGGAGTCACCTAGTGCAG", "binding signal": "30900 fluorescence intensity (a.u.)"},
      {"sequence": "TTTACTAATGAATACTTTAATTGTAGTGGAAATTCTATTGCGGAGTCACCTAGTGCAG", "binding signal": "14700 fluorescence intensity (a.u.)"},
      {"sequence": "ATGGAATTGATTAGAAGCCAGCCAGGCAGGGGAGGGTCGTCGGAGTCACCTAGTGCAG", "binding signal": "33900 fluorescence intensity (a.u.)"},
      {"sequence": "CGGTGATATTTATGTAAATTTATGGAGTAATATGTTTTATCGGAGTCACCTAGTGCAG", "binding signal": "7480 fluorescence intensity (a.u.)"},
      {"sequence": "GAAATCAATTTCTTATTGTCAAGCATGATAATATGCATCACGGAGTCACCTAGTGCAG", "binding signal": "6020 fluorescence intensity (a.u.)"}
    ]}
  ]
}
